Test results from PubChem BioAssay AID1030 (National Center for Advancing Translational Sciences (NCATS), 2008).
Screen size: about 220,000 compounds; about 16,000 (7.3%) were called active. Inconclusive means that the source gave no clear call. Such entries were picked first, then a sample of the others. Calls come from the whole dose curve; as a rule, active = well fitted inhibition curve with a large enough effect (not every such curve was filed as active); inconclusive = small, poorly fitted or top-dose-only effect, or another doubt; inactive = no such curve, though single readings can be large or run the other way. Potencies of inconclusive entries are left out as doubtful fits.

What follows are compounds tested against Aldehyde dehydrogenase 1A1 (Homo sapiens) (UniProt P00352) (assay: qHTS Assay for Inhibitors of Aldehyde Dehydrogenase 1 (ALDH1A1)). Conditions: Purified ALDH1A1, NADH fluorescence, propionaldehyde substrate; series mostly up to 75.3 µM.
Potency is the fitted concentration of half-maximal effect; tags give direction and shape of the fitted curve.

UniProt P00352, sequence (P00352 whole entry, looked up): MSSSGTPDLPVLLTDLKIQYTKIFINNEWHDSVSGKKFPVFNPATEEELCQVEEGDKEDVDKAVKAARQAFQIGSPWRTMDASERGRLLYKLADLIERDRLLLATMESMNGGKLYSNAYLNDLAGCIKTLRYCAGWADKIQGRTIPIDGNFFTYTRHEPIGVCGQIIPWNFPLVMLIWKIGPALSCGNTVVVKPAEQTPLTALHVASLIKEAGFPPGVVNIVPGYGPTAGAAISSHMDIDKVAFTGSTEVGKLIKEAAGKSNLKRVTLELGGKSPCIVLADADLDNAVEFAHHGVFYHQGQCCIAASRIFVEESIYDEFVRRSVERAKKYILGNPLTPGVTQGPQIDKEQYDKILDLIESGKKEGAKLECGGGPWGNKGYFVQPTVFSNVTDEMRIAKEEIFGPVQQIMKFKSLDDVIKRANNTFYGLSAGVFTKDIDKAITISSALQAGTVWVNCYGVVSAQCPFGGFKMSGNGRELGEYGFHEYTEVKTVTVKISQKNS

Question: For `Cc1ccc(C(=O)Nn2c(O)c(C=C3N=c4ccccc4=N3)sc2=S)cc1`, which Potency is on record?
Answer: The Potency was “inactive”.

Question: How did the Potency turn out when `Cc1cc(C)n2nc(SCC(=O)c3cc(C)n(CC4CCCO4)c3C)nc2n1` (stereo not given) was run?
Answer: Its Potency is inconclusive [inhibitor, single point].

Question: With `CCN(CC)C(=O)C(=O)N/N=C/c1ccc(Br)cc1` as the compound, how does the Potency read?
Answer: The Potency was “inactive”.

Question: `S=c1[nH]nc(-c2cc(-c3ccco3)[nH]n2)n1-c1ccccc1` was tested. Which Potency did it give?
Answer: The Potency was inconclusive [inhibitor, partial curve].

Question: How did the Potency turn out when `O=C(C1CC1)N1CCN(C(c2ccccc2)c2ccccc2)CC1` was run?
Answer: The Potency was active: 1.12 µM.

Question: Which Potency does the source give for `Cc1ccc(NC(=O)COc2cccnc2[N+](=O)[O-])cc1S(=O)(=O)N1CCCCC1` here?
Answer: The Potency was inconclusive [inhibitor, single point].

Question: How did the Potency turn out when `O=C(CSc1ccc2nnc(-c3cccnc3)n2n1)N1CCOCC1` was run?
Answer: Its Potency is inconclusive [inhibitor, single point].

Question: How did the Potency turn out when `O=C(Cn1c(-c2ccccc2)noc1=O)N1CCC(Cc2ccccc2)CC1` was run?
Answer: Its Potency is “inactive”.

Question: Which Potency does the source give for `CCN(CC)c1ccc(-c2nn3c(-c4cccnc4)nnc3s2)cc1` here?
Answer: The Potency was inconclusive [inhibitor, partial curve].

Question: With `S=C(NCc1ccc2c(c1)OCO2)NCc1ccc2c(c1)OCO2` as the compound, how does the Potency read?
Answer: The Potency was inconclusive [inhibitor, partial curve].

Question: With `COC(=O)C1=CN(Cc2cccs2)C=C(C(=O)OC)C1c1cccc(OC)c1OC` as the compound, how does the Potency read?
Answer: Its Potency is inconclusive [inhibitor, partial curve].

Question: Which Potency does the source give for `Cc1[nH]c(C(=O)N/N=C/c2ccc(N(C)C)cc2)c(C)c1C(=O)N/N=C/c1ccc(N(C)C)cc1` here?
Answer: The Potency was inconclusive [inhibitor, partial curve].

Question: Which Potency does the source give for `FC(F)(F)c1ccccc1NC(=S)N1CCc2ccccc2C1` here?
Answer: Its Potency is inconclusive [inhibitor, single point].

Question: How did the Potency turn out when `Cn1c(=O)[nH]c(=O)c2c1nc(Br)n2CC(O)c1ccccc1` (stereo not given) was run?
Answer: Its Potency is inconclusive [inhibitor, single point].

Question: Which Potency does the source give for `Cc1ccc(CNC(=O)c2cn(C3CCCC3)c(=O)c3c2c2ccccc2n3C)o1` here?
Answer: Its Potency is inconclusive [inhibitor, partial curve].

Question: How did the Potency turn out when `O=C(NCc1cn2ccccc2n1)c1ccc(Br)o1` was run?
Answer: Its Potency is inconclusive [inhibitor, single point].

Question: For `CN1CCN(C(=O)c2cc3ccccc3oc2=O)CC1`, which Potency is on record?
Answer: Its Potency is inconclusive [inhibitor, partial curve].

Question: With `NC(=S)Nc1cccc2cnccc12` as the compound, how does the Potency read?
Answer: The Potency was “inactive”.

Question: With `Cc1onc(-c2ccccc2)c1CNC(=O)C1COc2ccccc2O1` (stereo not given) as the compound, how does the Potency read?
Answer: The Potency was active: 17.8 µM.

Question: Which Potency does the source give for `COc1ccccc1NC(=O)N(Cc1ccccc1)C1=NCC(C)S1` (stereo not given) here?
Answer: Its Potency is inconclusive [inhibitor, single point].
